We go through 57 compounds from PubChem BioAssay AID360 (National Center for Advancing Translational Sciences (NCATS), 2006).

Structures are written as SMILES. About 550 (1.1%) of roughly 48,000 compounds were called active. Another 4% or so got no clear call; they are omitted. Cut-off read from the data, not from the text of the source: active = potency below about 15 µM; inconclusive = mostly about 16 µM to 33 µM; inactive = weaker than that. The list shows a part of the results. Where only a bound is given, the exact number is not on record here.
Potency is the fitted concentration of half-maximal effect.

Sequence of UniProt P04062 (P04062 whole entry, looked up): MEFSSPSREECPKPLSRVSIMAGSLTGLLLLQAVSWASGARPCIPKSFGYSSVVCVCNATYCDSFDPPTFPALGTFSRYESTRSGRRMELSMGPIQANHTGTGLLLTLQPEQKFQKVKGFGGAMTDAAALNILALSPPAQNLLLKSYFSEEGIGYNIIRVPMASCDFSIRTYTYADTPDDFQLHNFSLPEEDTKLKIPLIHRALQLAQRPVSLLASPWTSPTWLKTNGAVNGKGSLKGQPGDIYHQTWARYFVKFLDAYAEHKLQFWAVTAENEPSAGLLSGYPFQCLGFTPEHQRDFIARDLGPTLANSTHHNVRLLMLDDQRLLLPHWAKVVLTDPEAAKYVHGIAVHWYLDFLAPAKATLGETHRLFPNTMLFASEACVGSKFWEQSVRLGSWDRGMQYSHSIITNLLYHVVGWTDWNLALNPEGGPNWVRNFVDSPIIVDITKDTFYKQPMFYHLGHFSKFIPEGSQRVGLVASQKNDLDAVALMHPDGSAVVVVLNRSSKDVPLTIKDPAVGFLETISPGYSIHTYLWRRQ

This test concerns the target Lysosomal acid glucosylceramidase (Homo sapiens) (UniProt P04062). In words: Glucocerebrosidase.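 Note: the screen sought inhibitors.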 Particulars: purified enzyme, resorufin glucoside fluorescence (screen aimed at inhibitors), 20 min. The gist of the method:
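Wild-type enzyme at 0.2 nM final in 50mM citric acid/KH2PO4, 10mM sodium taurocholate, 0.01% tween-20, pH 5.9, with resorufin beta-D-glucopyranoside at 30 uM final. Compounds titrated, 20 min at RT, red fluorescence read; AC50 from titration.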
As for `COc1cccc(-n2c(SC3CCOC3=O)nc3ccccc3c2=O)c1` (configuration not stated), the Potency was inactive: > 76.9 µM.

On to `Cc1ccc2c(c1)nnn2C1CCN(C(=O)C2CCCCC2)CC1`, for which the Potency is inactive: > 76.9 µM.

As to `Cn1c(SCC(=O)NCc2cccs2)nnc1-c1cccs1`, the Potency is inactive: > 76.9 µM.

Turning to `COc1nnc(-c2ccc(C(=O)N3C[C@@H]4C[C@H](C3)c3cccc(=O)n3C4)cc2)c2ccccc12`, the Potency was inactive: > 76.9 µM.

Consider `O=C(NCCCN1CCCCCC1)c1ccc2c(c1)NC(=O)C(N1CCOCC1)S2` (configuration not stated), for which the Potency was inactive: > 76.9 µM.

Take `O=C(NCC(c1ccc(F)cc1)N1CCOCC1)c1ccc(Br)o1` (configuration not stated): the Potency is inactive: > 76.9 µM.

Turning to `COc1ccc(C2C(C(C)=O)=C(C)Nc3ncnn32)cc1OC` (configuration not stated), the Potency was inactive: > 76.9 µM.

For `CN(C(=O)CSc1nc(-c2ccc(F)cc2)cs1)C1CCS(=O)(=O)C1` (configuration not stated), the Potency is inactive: > 76.9 µM.

Regarding `CC(C)CC(OC(=O)c1ccco1)C(=O)NC1CCCCC1` (configuration not stated), the Potency is inactive: > 76.9 µM.

With `CCOC(=O)c1[nH]c(C)c(C(=O)NCc2ccc(Cl)cc2)c1C`, the Potency was inactive: > 76.9 µM.

Take `CC(=C1C(=O)c2ccccc2C1=O)N1CCN(c2ccccn2)CC1`: the Potency is inactive: > 76.9 µM.

Consider `Cc1sc(NC(=O)CSc2nnc(COc3ccccc3)n2C)c(C#N)c1C`, for which the Potency was inactive: > 76.9 µM.

Turning to `Cc1ccc(C)c(N2CCN(C(=O)CCCOc3cc(=O)n(C)c4ccccc34)CC2)c1`, the Potency was inactive: > 76.9 µM.

Take `COc1ccc(CC(=O)n2nc(-c3ccccc3)nc2NCc2ccco2)cc1`: the Potency is inactive: > 76.9 µM.

Consider `CCC(=O)N1CCc2cc(S(=O)(=O)NC(C(=O)NCc3ccc(C)cc3)C(C)C)ccc21` (configuration not stated), for which the Potency was inactive: > 76.9 µM.

As to `CCOC(=O)N1CCC(NC(=O)CCS(=O)(=O)c2ccc3c(c2)CCN3C(C)=O)CC1`, the Potency is inactive: > 76.9 µM.

In the case of `Cc1ccc2c(c1)[nH]c1c(=O)n(CCN3CCNCC3)cnc12`, the Potency was inactive: > 76.9 µM.

For `Cc1ccc(N(CC(N)=O)C2SC(=O)N(Cc3ccccc3)C2=O)cc1` (configuration not stated), the Potency was inactive: > 76.9 µM.

As to `c1csc(-n2nc3ccccc3n2)c1`, the Potency was inactive: > 76.9 µM.

Consider `Cc1cc(C)n(C(=O)C(C)N2C(=O)c3ccccc3C2=O)n1` (configuration not stated), for which the Potency was inactive: > 76.9 µM.

As for `Cc1cccc(S(=O)(=O)c2c(N)n(Cc3ccco3)c3nc4ccccc4nc23)c1`, the Potency was inactive: > 76.9 µM.

As for `Cn1c(=O)c2c(-c3ccccc3)n(Cc3ccccn3)cc2n(C)c1=O`, the Potency is inactive: > 76.9 µM.

As for `CCOC(=O)C(NC(=O)c1ccccc1)(N1CCCC1=O)C(F)(F)F` (configuration not stated), the Potency was inactive: > 76.9 µM.

For the compound `O=C(O)C1CCCN(C(=O)NCc2ccccc2)C1` (configuration not stated), the Potency is inactive: > 76.9 µM.

Regarding `O=C(O)c1cccc(S(=O)(=O)NCC2CCCO2)c1` (configuration not stated), the Potency was inactive: > 76.9 µM.

In the case of `O=C(Cn1cnc2ccccc2c1=O)NCCC(=O)N1CCN(Cc2ccccc2)CC1`, the Potency was inactive: > 76.9 µM.

`O=C(Nc1ccccn1)C12CC3CC(C1)CC(C(=O)Nc1ccccn1)(C3)C2`: the Potency is inactive: > 76.9 µM.

With `Cc1cc(C)cc(NC(=O)CSc2nnc(CNC(=O)c3cccs3)o2)c1`, the Potency was inactive: > 76.9 µM.

As for `CCOc1ccccc1NC(=O)c1cc(Cl)ccc1NC(=O)c1ccco1`, the Potency is inactive: > 76.9 µM.

Turning to `CNC(=O)c1ccccc1NC(=O)c1c(O)c2c([nH]c1=O)CCCC2`, the Potency was inactive: > 76.9 µM.

With `CCCN1C(=O)c2ccc(C(=O)NC3CCCCC3)cc2C1=O`, the Potency was inactive: > 76.9 µM.

In the case of `O=C(c1ccco1)N1CCN(C(=O)C(Sc2ccccc2)c2ccccc2)CC1` (configuration not stated), the Potency was inactive: > 76.9 µM.

Consider `Cc1ccc(Nc2oc(C)nc2C#N)cc1`, for which the Potency was inactive: > 76.9 µM.

Regarding `CCCCn1nnnc1SCC(=O)Nc1cccc(C)n1`, the Potency is inactive: > 76.9 µM.

As to `COc1ccc(C)cc1NC(=O)C1CCCCC1C(=O)O` (configuration not stated), the Potency was inactive: > 76.9 µM.

Consider `CCc1cccc2c(C#N)cn(CCOc3ccccc3OC)c12`, for which the Potency is inactive: > 76.9 µM.

Take `Cn1c(CCC(=O)Nc2ccc(N3CCOCC3)cc2)nc(=O)c2ccccc21`: the Potency was inactive: > 76.9 µM.

For `N#Cc1cc2c(nc1SCc1cccnc1)CCC2`, the Potency was inactive: > 76.9 µM.

For `Cc1ccc2nc3c(cc(C(=O)NCC4CCCO4)c(=N)n3CCCOC(C)C)c(=O)n2c1` (configuration not stated), the Potency was inactive: > 76.9 µM.

On to `O=C1CC(c2ccc(F)cc2)Sc2ccccc2N1` (configuration not stated), for which the Potency was inactive: > 76.9 µM.

As for `CC(C)CCNC(=O)C(c1ccco1)N(CC1CCCO1)C(=O)Cn1nnc2ccccc21` (configuration not stated), the Potency was inactive: > 76.9 µM.

For the compound `Cc1cc(C)cc(N2C(=O)CSC2c2cccs2)c1` (configuration not stated), the Potency is inactive: > 76.9 µM.

Regarding `COc1cccc(CN2C(=O)CN(C3CCCCC3)C(=O)C2c2ccc(F)cc2)c1` (configuration not stated), the Potency is inactive: > 76.9 µM.

For `Cc1n[nH]c(C)c1S(=O)(=O)N1CCCC(C(=O)Nc2ccc3c(c2)OCCO3)C1` (configuration not stated), the Potency was inactive: > 76.9 µM.

With `CN(Cc1ccccc1)C(=O)N[C@@H](Cc1ccccc1)C(=O)O`, the Potency is inactive: > 76.9 µM.

For the compound `Cc1ccc2oc(=O)n(Cc3ccccc3OC(C)C)c2c1`, the Potency was inactive: > 76.9 µM.

In the case of `COc1ccc2c(c1)CC(C1(O)C(=O)Nc3ccccc31)C2=O` (configuration not stated), the Potency is inactive: > 76.9 µM.

On to `CC(C)CCn1c(N2CCOCC2)nc2c1c(=O)n(CC(N)=O)c(=O)n2C`, for which the Potency is inactive: > 76.9 µM.

Take `COC(=O)Cn1c2ccc(OC)cc2c2nc3ccccc3nc21`: the Potency is inactive: > 76.9 µM.

For `COc1ccc(NC(=O)C2CCCN(c3c4c(nc5ncnn35)CCC4)C2)cc1` (configuration not stated), the Potency was inactive: > 76.9 µM.

`CCn1c(SCC(=O)N2CC(=O)Nc3ccccc32)nnc1-c1ccoc1C`: the Potency is inactive: > 76.9 µM.

For `CCOc1nc(NCc2ccco2)nc(Nc2ccc(OC)cc2)n1`, the Potency result was “inactive”.

Consider `COc1ccc(NC(=O)C2CC(c3cc(OC)c(OC)c(OC)c3)=NO2)cc1OC` (configuration not stated), for which the Potency is inactive: > 76.9 µM.

In the case of `O=C1NC(c2ccc3c(c2)OCO3)Oc2ccccc21` (configuration not stated), the Potency was inactive: > 76.9 µM.

With `CN1CCCC(C(=O)C(C#N)c2ccccc2)C1` (configuration not stated), the Potency is inactive: > 76.9 µM.

For `CS(=O)(=O)N(CCc1ccccc1)CC(N)=O`, the Potency is inactive: > 76.9 µM.

With `Cc1cc(C(=O)Nc2cccc3ncccc23)no1`, the Potency is inactive: > 76.9 µM.
